The source of these data is the RNAGym collection of RNA variant scans (doi:10.7554/elife.90254).

B1: OR4K15 (parent)
chain: GUUAACGGUCAUAGGCCAUGGAAACUAGGAGCACCAUUUCGCUGCCAGUGAAGAAAUGAACAAAGAAAAUCUGGGCCAGGCAGGCAUCAAAAGAAAUAGUCUUGCGCUCAACCAGAAAGUCUGUAAUCAUUUUAAGGGUA

The source gives no read counts; variants with many changes may rest on few reads.

The variants in the data set derive from B1. The data set can be described thus: self-cleavage, relative activity (ratio to wild type); higher = more cleavage; in vitro, sequencing; the parent is a self-cleaving ribozyme.
Turning to A11G U49C A69G C85U U100C, the self-cleavage turned out to be 1.32.
The figure for U12A A22G A98G is 0.3; for A11G U39A U72A U124C it is 0.09.
As for U12C A51G A135G, the self-cleavage came to 1.25.
In the case of A11U G29A U108C, the self-cleavage was 0.01.
As to U12A A56G U103A U120C U133C, the self-cleavage is 0.81.
Take A11G A67G U130G: the self-cleavage stood at 1.02.
As for A11U A82G U102A U124C, the self-cleavage came out at 0.41.
For A11U A18G A52U A68G A111G, the self-cleavage was 0.1.
Under A11U U43A A55G U57C A63G U97C U100C U127C U132C stands 1.65; under A13G A23G A51U, 0.58.
Consider A11G A62G A94G A118G, for which the self-cleavage came to 1.11.
Take A11G U39A A92U A111G A117G U130C: the self-cleavage was found to be 0.01.
In the case of A11U A30G A125G, the self-cleavage stood at 0.42.
The figure for U12C U108C U120C U139A is 0.01; for A13G A24G C35U A59G A66G it is 0.6; for A11G G48U A55G A86G A95G it is 1.
On to A11G U49C A51G A86G, for which the self-cleavage was 1.25.
On to A13C U103C A118G U130C, for which the self-cleavage is 0.84.
Turning to U12A A23G U38C U100G A110C, the self-cleavage amounted to 0.55.
Turning to A11G G58A A86G A114C, the self-cleavage came to 0.05.
As to A11G A60U A86U U87C U108C A114U, the self-cleavage was 0.01.
The figure for A11G U19A A56G A90U U122A is 1.47.
Take A11G A64G U103C: the self-cleavage came out at 0.75.
For the variant U12C A96G U131C A134G, the self-cleavage is 0.52.
As for A11G A63G A64C A89G U103G U122A A125G, the self-cleavage stood at 0.01.
Regarding U12C A91G A116G U131C, the self-cleavage is 0.48.
Regarding A11U A110G U124C, the self-cleavage amounted to 0.06.
On to A11U A18C A55U U70C U124C, for which the self-cleavage came out at 0.22.
For A11G A89G A134G, the self-cleavage is 0.96.
U12C A13U A94G A117U: the self-cleavage came out at 0.18.
Under A11U A13G A67G U100C U131C stands 1.8; under U12C G99U U132A, 0.34; under A11G U43A G80A A126G, 0.18.
As to A11U A13G A47G U87A U100C U108C, the self-cleavage came out at 0.09.
On to U12C A54U G65A A98G, for which the self-cleavage was found to be 0.
On to U12C A22G U37C G115U, for which the self-cleavage is 0.02.
Under U12C U39C A68G U100C U108A stands 0.04.
The figure for U12C A18G G137A is 0.94; for U12C U49G A64G A89G A134U it is 1.69.
On to U12C A27G A56G A91G A118G, for which the self-cleavage came to 0.4.
The figure for A13G A36U U108C is 0.1.
Regarding U12A U87C U127C, the self-cleavage was determined as 1.38.
Consider A13G A24G A91G, for which the self-cleavage is 1.5.
As to A11G G14A A52G A126G, the self-cleavage is 0.33.
On to A11U A56G U127C, for which the self-cleavage is 1.02.
Take A11G C85U C112A: the self-cleavage worked out at 0.05.
In the case of U12C A111G A114U, the self-cleavage came to 0.
Under U12C A59G A110G U120C stands 0.16; under U12C A36G A51G A94G A129G, 0.79.
For the variant A11G U43C C46U A89G A117C, the self-cleavage was found to be 0.17.
The figure for U12A A33G A59G is 0.5; for U12C A27G U43C A63G U72G U127C it is 0.04; for A11U A23G U39C A63G it is 0.7.
With A11G U87C A117G, the self-cleavage was 0.94.
With A11U U19C A33U A56G A94G A110G, the self-cleavage was 0.18.
Turning to U12C A69U U132A, the self-cleavage was 1.04.
Turning to U12A A18G U37C, the self-cleavage is 1.15.
For the variant A11G A60G C61G A64G A92G, the self-cleavage is 1.33.
Turning to U12C A54G U122A, the self-cleavage came to 0.8.
The figure for U12G A30U A90C is 1.08.
As for U12C A56G U127C, the self-cleavage turned out to be 1.24.
Under A11U A30U U87C A116G A117G A125G U132C stands 0.07; under U12C A30C U57A A68G, 1.03; under A11G U103G U108C, 0.08.
As for A11G A92G A116G, the self-cleavage amounted to 0.
Regarding U12A U43A U102C, the self-cleavage is 1.44.
As to A11U A63G A69G A135U, the self-cleavage came to 1.16.
A11U U37C U39C A56G U133C A134U: the self-cleavage was 2.11.
As for A11G G28A U108C U127C, the self-cleavage came out at 0.02.
In the case of A11U U70C A94G A129U, the self-cleavage is 0.08.
The figure for U12C U37C A52G A54G U127C U131C is 0.39; for A11U A24G A51G A62C A125G it is 0.58.
On to U12C A18U U49C U57A A89G, for which the self-cleavage was determined as 1.18.
For the variant U12C A55G A135U, the self-cleavage was determined as 0.7.
A11U U57A A69G: the self-cleavage was 0.39.
For the variant A11G U102A A117G U127C, the self-cleavage was 0.22.
The figure for A13G A18U A116G is 0.19.
U12C A23G A82G: the self-cleavage was found to be 0.49.
Turning to U12C A86U U127C, the self-cleavage was found to be 0.85.
As to U12C C32U A55U U72C, the self-cleavage is 0.44.
For A11U A22G U131C, the self-cleavage turned out to be 1.18.
Under A11G A66G A82G stands 0.18.
The figure for U12C A47G A96G is 1.56.
Turning to U12C U38A A86G U131A, the self-cleavage came out at 0.32.
As for A11U A55G A91G, the self-cleavage came to 1.4.
Turning to U12A U38C A114U, the self-cleavage stood at 0.09.
For the variant U12C A18G A30G A52G, the self-cleavage was found to be 0.61.
For U12C C17A A47C A60G A90G U103A A111G, the self-cleavage was 0.01.
Turning to U12C U87A U102C, the self-cleavage amounted to 1.14.
Take U12C U39C A82G U139G: the self-cleavage came to 0.97.
The figure for A11U A22U A59G C85U is 0.37; for U12C A64G A92G A96U A117G it is 1.67.
As to A11U G115A U122C, the self-cleavage was found to be 0.02.
With A11U A22U U120C, the self-cleavage is 1.3.
As for A11G C42A A52G A95U A96G, the self-cleavage was 0.52.
Regarding A11G U12C U70C U87C A110G A114U, the self-cleavage came out at 0.05.
Regarding A13C U57C A67G U122C, the self-cleavage came out at 1.2.
Take U12A A13G A47G A52G A125U A126G: the self-cleavage amounted to 0.16.
On to A11G A92G A95G A98G G138A, for which the self-cleavage worked out at 1.11.
For the variant A11G C16G A18G A86G, the self-cleavage was determined as 0.51.
For A11U C42U U108C A126G, the self-cleavage is 0.
The figure for A11G U43A A55G is 1.05.
For A11G C61U U132C, the self-cleavage came out at 0.88.
Turning to A11U A24G U103C A125G, the self-cleavage stood at 0.12.
Take U12C A13G A55G U130C: the self-cleavage was 1.15.
As for A13G A18G A23G, the self-cleavage was 0.45.
As to A11U A23G A116C, the self-cleavage is 0.1.
Turning to A13G A18G A23C A91C A118U, the self-cleavage stood at 0.07.
Turning to A11G U43C A86G A90G, the self-cleavage came out at 0.92.
Regarding A11G U19C A23U A47C A89U A92G, the self-cleavage is 1.
For U12C C17U A36U, the self-cleavage is 1.48.
In the case of A13G A22G U103C, the self-cleavage amounted to 1.24.
Regarding A11U A36C A111G U122C, the self-cleavage came out at 0.01.
Regarding A11G U37A A64G A78G, the self-cleavage was 0.25.
Turning to U12C U132C U133A, the self-cleavage was determined as 0.64.
As for A11G U43A A95G U102C, the self-cleavage is 0.84.
As for U12C U38C U43C A140U, the self-cleavage worked out at 0.85.
In the case of A11G A78U A90G U108C, the self-cleavage amounted to 0.04.
As for U12C A24G A63G A95G, the self-cleavage came to 1.76.
Under A11U U49G A55G A94G U100C U133A stands 2.26; under U12G U124C U130G, 0.87.
A11G U37C G75A A82G C85U A94U U130C U131C: the self-cleavage amounted to 0.1.
Consider U12A G31A U38C A96G, for which the self-cleavage stood at 1.54.
On to A11U A59G A78G U127C, for which the self-cleavage amounted to 0.11.
For A11G U39C G44C A60G A67G G93A, the self-cleavage is 0.8.
As to U12C A22G U37C A55U C109U, the self-cleavage was determined as 0.37.
As for U12A U57C A86C A92U, the self-cleavage is 1.03.
With U12C A52G A62G A90G U122C, the self-cleavage came out at 0.81.
Take U12C A63G A67C A92U: the self-cleavage was found to be 1.51.
Consider A11U A36G A114U, for which the self-cleavage stood at 0.2.
As for A11U G41C A62G A67G A117U, the self-cleavage came to 0.61.
Take A11G A86C U120C A134G: the self-cleavage amounted to 0.09.
Regarding A13G A23C A66G, the self-cleavage is 0.85.
A11G C40U A64G A90G U127C: the self-cleavage worked out at 0.97.
Take U12C A24U A56G A63G A135G: the self-cleavage amounted to 0.95.
Regarding U12C U49C U132C, the self-cleavage was determined as 1.13.
Consider A11U G74A A116G, for which the self-cleavage was 0.01.
For U12C A69G A96G, the self-cleavage stood at 1.58.
For the variant A13G A33G A36G A82U A98U U103C, the self-cleavage worked out at 0.49.
As for A11U U37C A89U A98G, the self-cleavage came out at 1.23.
With A11G A60G A95G, the self-cleavage was 1.15.
In the case of U12A A47G A63G A116U, the self-cleavage was 0.54.
For the variant U12C U122A A134G, the self-cleavage is 1.16.
Under A11G A60U A62U U108C stands 0.04.
Under A11G A129C G136A stands 0.59.
Take A11G C45A A56G U131C: the self-cleavage was 0.84.
For the variant U12C A18G A22G U38C C85U U108C A140G, the self-cleavage was found to be 0.01.
On to A11G G29A A52G A67G A78G U87C, for which the self-cleavage turned out to be 0.22.
Under U12C A47G A64G A110U stands 0.37; under U12C A27U A33G, 1.33; under U12C A78G A90G A96C, 0.07.
As to U12C U70A A118C, the self-cleavage is 0.31.
Under U12C U39C A64G U108C stands 0.01.
On to U12A A54G A56G U87C, for which the self-cleavage worked out at 0.48.
As to A11G U37C A52U A68G U87C U130C, the self-cleavage is 0.46.
With A11U A82G A111G, the self-cleavage was 0.04.
For the variant A11G A125G A126U, the self-cleavage came out at 0.92.
With U12C A24G U49C C112U U132C, the self-cleavage was 0.04.
Turning to A11U U38C U39C U100C, the self-cleavage stood at 1.38.
A11U A18G A24G A54G A68G G79A: the self-cleavage was 0.15.
With A11G U43G A51G A55G A68G A96U, the self-cleavage was 1.54.
Take U12A A67G U87C A92G U122C U131C: the self-cleavage is 0.54.
Take A11U C16U U19A G83A U100A G104U A117G U130C: the self-cleavage worked out at 0.
With A13G A23G A55G A56G A78U A95G U122C, the self-cleavage is 0.31.
As for U12C A22G A59G U87C, the self-cleavage came out at 1.05.
Consider U12C A24G A78C A95G A117G, for which the self-cleavage amounted to 0.29.
